{"source": "the supplement of paper PMC11417369", "note": "This is one part of the list."}
{"system": "PF3D7_0420300 AP2 domain 1 (GST-tagged)", "experiment": "gcPBM binding intensity (ln(normalized median fluorescence intensity)); higher = stronger DNA binding", "procedure,_shortened": "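GST-fused DNA-binding domains of P. falciparum, expressed in E. coli, were applied at about 25 μg on average for 1 h to an Agilent 4 × 180k array of primer-extended double-stranded 36-bp intergenic genomic probes and negative controls. Binding intensity is the highest Masliner-normalised natural-log median intensity across replicate spots of either probe orientation, measured with Alexa488 anti-GST antibody and a 488 nm scan.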"}
{"sequence": "AATATAAGTTTATTAGTGCACAGATAAATATATATT [GTGCAC_site9784]", "gcPBM binding intensity (ln)": 9.31}
{"sequence": "ATGTATGTTTTTTTTTTATTGTTCAAAAAGTTGAAG [CACACA_negctrl_site1276]", "gcPBM binding intensity (ln)": 9.2}
{"sequence": "ATTTTTTATATTAATTGTACATTGTATATATATATA [XGTACX_site8702]", "gcPBM binding intensity (ln)": 9.41}
{"sequence": "TTTTTATAAAAATTATTAAAAAAATTATTTATAGCT [CACACA_negctrl_site265]", "gcPBM binding intensity (ln)": 8.72}
{"sequence": "TTTTTTTTCAATCTCTATATATTAAGGTTTATATTT [XGTACX_negctrl_site397]", "gcPBM binding intensity (ln)": 9.25}
{"sequence": "TAGCGCATAAAAAAAAAAAAATATATACTAATAAAT [GTGCAC_negctrl_site276]", "gcPBM binding intensity (ln)": 9.14}
{"sequence": "AAATATATTATTATCTTATCAATTAAAAGAATAAAC [CACACA_negctrl_site779]", "gcPBM binding intensity (ln)": 9.09}
{"sequence": "AAATATAAAAGTATATGTACATATATATATATATAT [XGTACX_site7446]", "gcPBM binding intensity (ln)": 9.3}
{"sequence": "AATAAATAGATATATACACACATATATCTATAATAT [CACACA_site6557]", "gcPBM binding intensity (ln)": 9.5}
{"sequence": "TATATAATGGTAAAAACACACAAATATGAAGATGTT [CACACA_site722]", "gcPBM binding intensity (ln)": 9.52}
{"sequence": "CGTGTGTCCCCCTTAATCATCCAATCGTTCATTTTG [CACACA_negctrl_site1008]", "gcPBM binding intensity (ln)": 9.55}
{"sequence": "AGAGGATCATAGTTATGTACACATATTTAACATAAA [XGTACX_site7232]", "gcPBM binding intensity (ln)": 9.23}
{"sequence": "TCTTCATTTTTATGTGCATGTAAAATTTTTTTTTTT [TGCATGCA_site963]", "gcPBM binding intensity (ln)": 9.21}
{"sequence": "GACAATAAAAAGAAAAGTACATATATAAATTAACCA [XGTACX_site7858]", "gcPBM binding intensity (ln)": 9.42}
{"sequence": "TTTTTTTCTAATTATGCACACATATCAAAATATTCA [CACACA_site8886]", "gcPBM binding intensity (ln)": 9.15}
{"sequence": "ATATTTATTATATAATGTACAAAAAAAAAAAAAAAA [XGTACX_site629]", "gcPBM binding intensity (ln)": 8.83}
{"sequence": "TAAAATAAAAATTAAAGTACATATGTATATATATAT [XGTACX_site3984]", "gcPBM binding intensity (ln)": 9.39}
{"sequence": "AATCCTTACGGACACACACACACGAATAAATAAAAA [CACACA_site4422]", "gcPBM binding intensity (ln)": 9.99}
{"sequence": "GAGTATTCAAGTATTAGTACATATTATATAATAAAT [XGTACX_site7630]", "gcPBM binding intensity (ln)": 9.16}
{"sequence": "TACAAAATGGGGAACACACACATATATAAATAAATA [CACACA_site7751]", "gcPBM binding intensity (ln)": 10.1}
{"sequence": "ATAATTATTTTAGAAACACACAAATTAGAAAAAACA [CACACA_site3636]", "gcPBM binding intensity (ln)": 9.44}
{"sequence": "ATATAATTATTGATATGTACATATTTGTTCTAGTTT [XGTACX_site3012]", "gcPBM binding intensity (ln)": 9.38}
{"sequence": "ATTCAAATATTAAAAAGTACAAAAAAAAAACAAAAA [XGTACX_site1174]", "gcPBM binding intensity (ln)": 9.57}
{"sequence": "ACATTAAAATATGATTGTACATTTTATTATATTATA [XGTACX_site912]", "gcPBM binding intensity (ln)": 9.14}
{"sequence": "ACAACACTATATTACACATGCATTAAGAGAGTGAAC [TGCATGCA_site124]", "gcPBM binding intensity (ln)": 9.51}
{"sequence": "CTATCATATTTATGCACACAAAAATAATTAATTCGT [CACACA_site2614]", "gcPBM binding intensity (ln)": 9.35}
{"sequence": "TATTTTGAGAATAAATGTACGAATTTTATATTTAAA [XGTACX_site1336]", "gcPBM binding intensity (ln)": 8.92}
{"sequence": "ACCTGTTCATATGATCGTACACGTCAGTTTATATGA [XGTACX_site3869]", "gcPBM binding intensity (ln)": 9.42}
{"sequence": "CAAAATATAACATCATCACACACATATACTTTATAT [CACACA_site8292]", "gcPBM binding intensity (ln)": 9.83}
{"sequence": "ATTTAAAAATAAAGAACACACATATGTAAAATATAT [CACACA_site3754]", "gcPBM binding intensity (ln)": 9.55}
{"sequence": "TATTTAAGAGTATGAACACACATCATACACATATAA [CACACA_site3617]", "gcPBM binding intensity (ln)": 9.38}
{"sequence": "TTATTAATATATAAATGTACATATACAATACATAAA [XGTACX_site5571]", "gcPBM binding intensity (ln)": 9.24}
{"sequence": "TATGTTTGTGTATATATTTATTTTTATGTAATTATA [GTGCAC_negctrl_site219]", "gcPBM binding intensity (ln)": 9.66}
{"sequence": "AATAGAACTATTACACGTACAGAACATGAATTAGTT [XGTACX_site7518]", "gcPBM binding intensity (ln)": 9.36}
{"sequence": "TTTTTTAATTAGTACAAACACACATATACAGACAAA [CACACA_site2564]", "gcPBM binding intensity (ln)": 9.56}
{"sequence": "TGTTATATATGTAATTGTACACTTATACAAAATTAT [XGTACX_site6350]", "gcPBM binding intensity (ln)": 9.19}
{"sequence": "ATTTAGAATGCGTATACACACATATATAGATTTGCT [CACACA_site626]", "gcPBM binding intensity (ln)": 9.42}
{"sequence": "AAAAAAATTAGACACACACACACATATAAATATGTA [CACACA_site6618]", "gcPBM binding intensity (ln)": 10.1}
{"sequence": "TCCTTATATGGGCACACACACACAATAAAATGAAAA [CACACA_site1030]", "gcPBM binding intensity (ln)": 10}
{"sequence": "AAAATTAGGTATATATGTACATATATAAATATATAT [XGTACX_site3555]", "gcPBM binding intensity (ln)": 9.28}
{"sequence": "GTTTATATTAAACAAACACACACATATATATATATA [CACACA_site8749]", "gcPBM binding intensity (ln)": 9.52}
{"sequence": "TATGCTACAAGGAGAACACACAATTGCCACTTTTGG [CACACA_site2166]", "gcPBM binding intensity (ln)": 9.43}
{"sequence": "AACCATTATTTCTCTACACACATTTATGTCATTTAC [CACACA_site1499]", "gcPBM binding intensity (ln)": 9.96}
{"sequence": "ATCTATATAATATATACACACAAATATACAAAAAAA [CACACA_site1013]", "gcPBM binding intensity (ln)": 9.65}
{"sequence": "TTATATTATATATATAGTACACATGTAATATTTCAA [XGTACX_site1791]", "gcPBM binding intensity (ln)": 9.05}
{"sequence": "TACATGCATTTCTCATGTACATAATTTTCCCATATT [XGTACX_site5158]", "gcPBM binding intensity (ln)": 9.2}
{"sequence": "ATAAATTAAAGACACACACACATCTGGATACCCCTA [CACACA_site7546]", "gcPBM binding intensity (ln)": 9.97}
{"sequence": "TAAATATGCTCACAGATGCACTAACACATTTTTATA [GTGCAC_site9997]", "gcPBM binding intensity (ln)": 9.2}
{"sequence": "TTTTATACATAAATGTGTACGTATATATAATGAATT [XGTACX_site2762]", "gcPBM binding intensity (ln)": 9.29}
{"sequence": "TATTGTAGAGGCAAAAGTACACATTTAATAATTTCC [XGTACX_site1151]", "gcPBM binding intensity (ln)": 9.23}
{"sequence": "TATTAATAAATTTATAAAACAGGTATATATATATAT [CACACA_negctrl_site615]", "gcPBM binding intensity (ln)": 9.15}
{"sequence": "TGCAGTCTGGAGAAGAGTACATAGTATCTGGTAGCT [XGTACX_site2021]", "gcPBM binding intensity (ln)": 9.13}
{"sequence": "AAGAAAACTTAAAATAAAAGCATATTTTATCTTACA [TGCATGCA_negctrl_site366]", "gcPBM binding intensity (ln)": 8.99}
{"sequence": "ATATATATATATATATGTACACACATCAATCATATT [XGTACX_site4005]", "gcPBM binding intensity (ln)": 9.41}
{"sequence": "AGAGTACAAGTAAATACACACATATAGATGAAAATA [CACACA_site6635]", "gcPBM binding intensity (ln)": 9.83}
{"sequence": "ATGTATATGATTAAATGTACGTAAACAAATTTGTAA [XGTACX_site8174]", "gcPBM binding intensity (ln)": 9.25}
